Consider 44 sequences from the supplement of paper PMC11417369.

± gives the standard deviation of the averaged measurements. The list shows a part of the results.

In this test the test system is PfAP2-LT AP2 domain (GST-tagged). Briefly: gcPBM binding intensity (ln(normalized median fluorescence intensity)); higher = stronger DNA binding. Put shortly:
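The highest Masliner-normalised natural-log median intensity across replicate spots of either probe orientation is reported as binding intensity. GST-tagged P. falciparum DNA-binding domains expressed in E. coli were applied for 1 h to an Agilent 4 × 180k array of primer-extended double-stranded 36-bp intergenic genomic probes plus negative controls, and bound protein was detected with Alexa488 anti-GST antibody and scanned at 488 nm.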
“TGGTAATTTCTTTGATAAAAATTAATATGTATAAAT [XGTACX_negctrl_site152]”: the “gcPBM binding intensity (ln)” value turned out to be 8.24 ± 0.49.
Take “TATTTTAACATTAGGTGTACATACAAAAATAAAAAT [XGTACX_site8577]”: the “gcPBM binding intensity (ln)” value is 8.84 ± 0.4.
On to “AATATTTGTTAAAGAGGTACACCATTTGGTAGGGAA [XGTACX_site2165]”, for which the “gcPBM binding intensity (ln)” value amounted to 8.73 ± 0.47.
The figure for “ATTATTTAAATGGATGCACACATGCATTAAATAAAA [CACACA_site5831]” is 8.75 ± 0.45; for “AAAAAAAAAAATATAACACACAACAAAAAAATATAT [CACACA_site1753]” it is 9.15 ± 0.48; for “ATAATATGAAAACACACACACACACTAGAAAAAAAA [CACACA_site5153]” it is 10.2 ± 0.27.
“ACCCTATATGTAACTACACACCGCATATTGTTTACT [CACACA_site3071]”: the “gcPBM binding intensity (ln)” value came to 9.46 ± 0.42.
For “TTTATATTCTTAAGTGTGCACTATATATATATATAT [GTGCAC_site9719]” the value was 9.16 ± 0.23.
The figure for “TTTGTTCATATTATTGTGCACTTAAACGTAACAAAA [GTGCAC_site9505]” is 8.6 ± 0.31; for “ATGTATGTATATACTTGTACATATTCATATTAGTAT [XGTACX_site1118]” it is 8.91 ± 0.39.
The figure for “AATGTAGCATTTTATCGTACACTTAATACAAAAAAG [XGTACX_site6214]” is 8.73 ± 0.3; for “TAATAAGTAAAAAAATGTACCCGTTAGGTTTAATAA [XGTACX_site638]” it is 8.53 ± 0.53; for “AAAATAATATTTAATACACACACCAGTTCTGCAAAT [CACACA_site3736]” it is 9.27 ± 0.31.
Take “TTTTTTTATTTTATTTTATTATCTTATGTATCACAA [CACACA_negctrl_site1755]”: the “gcPBM binding intensity (ln)” value was 8.66 ± 0.47.
The figure for “AGAAATATATATATATATATATGTGACAATATTTGT [TGCATGCA_negctrl_site282]” is 9.19 ± 0.26; for “TTTTTCTCTCTCTTATTATACAACAACAAAAAAAAA [GTGCAC_negctrl_site178]” it is 8.02 ± 0.35.
For “ACAAAAAGGTAATTTACACACTGCATATAGGAATAA [CACACA_site2929]” the value was 9.08 ± 0.47.
For “TATAATAATAATAATAGTACGTATTATTAAAAAACT [XGTACX_site10]” the value was 8.88 ± 0.39; for “ATATTACACATATATGCACACATTGTAGTTATTTAT [CACACA_site8843]”, 9.24 ± 0.33; for “CAATTACAAAAGAAATGTACTCGTAATAAATAAATA [XGTACX_site1126]”, 8.96 ± 0.47.
For “TGAAATTTTTATACATGTACAAAATTAAATATAACA [XGTACX_site7324]”, the “gcPBM binding intensity (ln)” value was found to be 8.59 ± 0.41.
In the case of “AAATTATTTCCGTGTACACATAAATATATATTTTAT [CACACA_site5121]”, the “gcPBM binding intensity (ln)” value worked out at 9.01 ± 0.38.
Regarding “TAAGTTCACAAAAAAAAAAAAAAATAAAGAAATAAA [CACACA_negctrl_site825]”, the “gcPBM binding intensity (ln)” value is 8.35 ± 0.62.
For “TTATTATGCTGAGTACGTACTTATATAAGAATAGCA [XGTACX_site2955]” the value was 8.7 ± 0.38; for “ATGTATATAATAAGAACACACATATATTTAATTTAA [CACACA_site2941]”, 9.01 ± 0.46.
The figure for “TATTCTATATTTCTATTTAGAAAACATCCCAGTGTG [GTGCAC_negctrl_site184]” is 8.49 ± 0.52.
For “AAAAATAAAATATATACATGCATATACATATTATAT [TGCATGCA_site668]” the value was 8.71 ± 0.44; for “TGTTATATTTAATATAGTACATATTATTTTATATAT [XGTACX_site70]”, 8.71 ± 0.49.
For the sequence “AGAAAATTAAAAAGAACACACAAATATATATAGAAT [CACACA_site3592]”, the “gcPBM binding intensity (ln)” value amounted to 9.18 ± 0.51.
Take “ATTTATATGCACCATTGTACGTTTTATAAAGTTTGG [XGTACX_site3755]”: the “gcPBM binding intensity (ln)” value stood at 8.94 ± 0.42.
For “ATACATATATACATACGTACTTATATACATATGTGC [XGTACX_site5268]” the value was 9.07 ± 0.42; for “TATCATGTCTGTATTTCACACACGGATAATCATTTA [CACACA_site920]”, 9.09 ± 0.44; for “ATGCTTTTATAAATAATTAAAAAAAAAAAAAAAAAA [TGCATGCA_negctrl_site533]”, 7.92 ± 0.42.
In the case of “CTCAAATAATTTTTTACACACATTATTTGAAATAAG [CACACA_site1290]”, the “gcPBM binding intensity (ln)” value was 8.7 ± 0.3.
For “TTTTTTTTTAATATTTGTACACAACATGAAACATTT [XGTACX_site473]” the value was 8.73 ± 0.58; for “GTAATATATACAAAATGTACAAAACAATAACATGAT [XGTACX_site8575]”, 9.2 ± 0.52; for “ATCCAAACAAATAAAACATGCATAATATATATATAT [TGCATGCA_site766]”, 9.16 ± 0.2.
The figure for “TAAAATATTACGTGTACACATAAATAAAAATAAAAA [CACACA_site5066]” is 8.89 ± 0.57; for “TTTTATATTCCACAAAAAATTATATAATAATAGAAC [CACACA_negctrl_site1741]” it is 8.4 ± 0.38.
For “TATACATATGAAAATACACACATACATACCTATATA [CACACA_site6888]” the value was 9.29 ± 0.36.
With “TATTTAACACCTTATACACACTTTCTTCCTTTTTTA [CACACA_site4590]”, the “gcPBM binding intensity (ln)” value was 8.96 ± 0.53.
In the case of “TAATTGTACGCCAATACACACAGAATTATAATGTAG [CACACA_site6201]”, the “gcPBM binding intensity (ln)” value is 9.06 ± 0.32.
Turning to “ATGCACTCATTGTGCACACGCATATTACGAAAAGAA [CACACA_site2638]”, the “gcPBM binding intensity (ln)” value amounted to 9.2 ± 0.34.
As for “AAAAAAAAAAAAAACACACACACACCCATACAAAAT [CACACA_site1446]”, the “gcPBM binding intensity (ln)” value amounted to 10.12 ± 0.064.
